According to PubChem BioAssay AID1460 (National Center for Advancing Translational Sciences (NCATS), 2008):
The campaign covered roughly 270,000 compounds. About 5,800 (2.1%) were called active. Inconclusive results, whose numbers are uncertain, are shown with a selection of clear calls. Calls follow the shape of the dose curve; as a rule, active = well fitted inhibition curve with a large enough effect; inconclusive = small, poorly fitted or top-dose-only effect; inactive = flat fitted curve, though single readings scatter. Potencies beside an inconclusive call are fits to weak or partial responses and may not hold up.
Also: nearly all actives have a fitted effect of over 55% in size.
Potency is read from the fitted curve at half-maximal effect; tags tell the direction and shape of the fitted curve.

What follows are compounds tested against Microtubule-associated protein tau (Homo sapiens) (UniProt P10636) (assay: qHTS for Inhibitors of Tau Fibril Formation, Thioflavin T Binding). Settings: recombinant tau K18 P301L, heparin-induced fibrillization, ThT fluorescence; series mostly up to 57.4 µM.
UniProt P10636, sequence (P10636 whole entry, looked up): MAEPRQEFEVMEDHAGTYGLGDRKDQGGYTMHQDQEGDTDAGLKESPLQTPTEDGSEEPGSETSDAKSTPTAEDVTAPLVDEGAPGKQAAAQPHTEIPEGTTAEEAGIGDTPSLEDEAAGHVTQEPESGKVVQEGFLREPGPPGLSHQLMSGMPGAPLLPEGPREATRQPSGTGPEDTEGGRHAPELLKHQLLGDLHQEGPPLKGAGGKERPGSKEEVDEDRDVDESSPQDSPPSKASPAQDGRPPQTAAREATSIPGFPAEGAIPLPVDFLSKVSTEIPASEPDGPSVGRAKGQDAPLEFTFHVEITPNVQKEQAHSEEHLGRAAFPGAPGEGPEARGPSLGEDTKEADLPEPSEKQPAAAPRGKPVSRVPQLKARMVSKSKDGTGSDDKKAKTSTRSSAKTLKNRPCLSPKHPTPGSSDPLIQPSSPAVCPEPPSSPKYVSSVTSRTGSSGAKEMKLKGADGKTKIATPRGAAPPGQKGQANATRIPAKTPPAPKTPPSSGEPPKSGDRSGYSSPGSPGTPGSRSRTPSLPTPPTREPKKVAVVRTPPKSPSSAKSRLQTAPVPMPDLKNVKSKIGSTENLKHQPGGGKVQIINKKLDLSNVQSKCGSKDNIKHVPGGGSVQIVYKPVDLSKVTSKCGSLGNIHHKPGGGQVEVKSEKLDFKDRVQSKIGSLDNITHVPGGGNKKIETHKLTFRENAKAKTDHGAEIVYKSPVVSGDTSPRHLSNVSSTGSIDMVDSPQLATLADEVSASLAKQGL
Procedure, shortened: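 Fibril formation assay: tau K18 P301L at 15 uM with trace Alexa 594 label, heparin inducer 20 uM, pH 7 sodium acetate buffer, 37 C for 6 hr; endpoint ThT signal.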
With `COc1cccc(N=Nc2c(=O)[nH]n3c(=O)cc(C)[nH]c23)c1` the Potency was active: 15.8 µM. In the case of `Cc1nc2cc(-c3cccc(F)c3)nn2c(C)c1CCC(=O)N1CCN(c2ccc(F)cc2)CC1`, the Potency was inconclusive: 28.2 µM [inhibitor, partial curve, poor fit]. In the case of `COc1ccccc1Nc1nc(-c2cccs2)cs1`, the Potency was active: 14.1 µM. In the case of `S=c1[nH]c2ccccc2n2cccc12`, the Potency was “inactive”. With `CC(=O)c1c(C)[nH]c(C(=O)OCC(=O)Nc2cc(Cl)ccc2[N+](=O)[O-])c1C` the Potency was inconclusive: 14.1 µM [inhibitor, partial curve]. In the case of `O=C(Nc1ccc(F)cc1)Nc1ccccc1N1CCCCC1`, the Potency was “inactive”. `CCn1c2ccccc2c2cc(NC(=O)COC(=O)c3cc(Cl)c(N)cc3OC)ccc21` was tested, and the Potency was inconclusive: 3.55 µM [inhibitor, full curve]. In the case of `Cc1cccc(NC(=S)N/N=C/C(C)c2ccccc2)c1C` (stereo not drawn), the Potency was inconclusive: 20 µM [inhibitor, single point]. For `Cc1ccc(NC(=S)Nc2cccc(S(=O)(=O)Nc3c(C)n(C)n(-c4ccccc4)c3=O)c2)cc1`, the Potency was “inactive”. In the case of `O=C1NC(=S)N/C1=C/c1cccn1-c1ccc([N+](=O)[O-])cc1`, the Potency was inconclusive: 14.1 µM [inhibitor, partial curve]. In the case of `CN(C)c1ccc(/C=N/NC(=O)c2ccccc2O)o1`, the Potency was inconclusive: 28.2 µM [inhibitor, partial curve]. For `c1ccc(CNC23CC4CC(CC(C4)C2)C3)nc1`, the Potency was “inactive”. With `CCc1c(C)nc2nncn2c1Nc1ccc(C)c(F)c1` the Potency was “inactive”. With `COc1ccc(-c2cc(C(=O)N3CC4(C)CC3CC(C)(C)C4)no2)cc1OC` (stereo not drawn) the Potency was inconclusive: 14.1 µM [inhibitor, partial curve]. For `Cc1ccccc1CNC(=O)CCCn1nc(C)c2sc3ccccc3c2c1=O`, the Potency was “inactive”. In the case of `CCCS(=O)(=O)NCCc1csc2nc(-c3ccc(OC)cc3)nn12`, the Potency was “inactive”. In the case of `CCOc1ccc(N/C(=C(/C(Cl)=C(Cl)Cl)[N+](=O)[O-])n2cncn2)cc1`, the Potency was inconclusive: 17.8 µM [inhibitor, partial curve]. In the case of `S=C(NCC1CCCCC1)Nc1ccc(Oc2ccccc2)cc1`, the Potency was inconclusive: 15.8 µM [inhibitor, partial curve]. `COc1ccc(-c2noc(COc3ccc4c(c3)OCO4)n2)cc1` was tested, and the Potency was inconclusive: 3.55 µM [inhibitor, full curve]. `COc1cc(/C=C(\C#N)C(=O)NCc2cccs2)ccc1O` was tested, and the Potency was inconclusive: 20 µM [inhibitor, partial curve]. In the case of `CCc1nc2n(n1)C(O)c1cc([N+](=O)[O-])ccc1S2` (stereo not drawn), the Potency was inconclusive: 20 µM [inhibitor, partial curve]. In the case of `O=C1/C(=C/Nc2ccc3c(c2)OCO3)CCc2ccccc21`, the Potency was active: 1.58 µM. In the case of `Cn1c(-c2sc3ccccc3c2Cl)n[nH]c1=S`, the Potency was inconclusive: 35.5 µM [inhibitor, single point]. With `CCN1C(=O)c2ccccc2Sc2ccc(NC(=O)c3ccc(C)c(F)c3)cc21` the Potency was “inactive”. With `CN(C(=O)c1cc2ccccc2oc1=O)C1(C)CCS(=O)(=O)C1` (stereo not drawn) the Potency was “inactive”. In the case of `Cc1c(C(N)=O)sc2nc(-c3ccccc3)cn12`, the Potency was inconclusive: 15.8 µM [inhibitor, partial curve]. With `Cc1cc(-c2ccccc2)n2ncc(-c3ccccc3)c2n1` the Potency was inconclusive: 11.2 µM [inhibitor, partial curve]. With `CC(C)OCC1CC(CC(=O)Nc2ccc([N+](=O)[O-])cc2)C(=O)O1` (stereo not drawn) the Potency was “inactive”. `CC(C)(C)C(=O)Nc1sc(-c2ccccc2)cc1C(=O)O` was tested, and the Potency was “inactive”. With `Cc1cc2cc(CNC(=O)Nc3ccc(Cl)c(Cl)c3)ccc2n1C` the Potency was “inactive”. In the case of `COc1ccc(C2CC(=O)Nc3c2c(=O)nc2c(C)cccn32)cc1` (stereo not drawn), the Potency was “inactive”. For `Cc1ccc2oc(=O)n(CCNC(=O)Nc3ccccc3Cl)c2c1`, the Potency was “inactive”. `COc1ccc2c(c1OC)C(=O)OC2Nc1nc(-c2cc3ccccc3oc2=O)cs1` (stereo not drawn) was tested, and the Potency was inconclusive: 15.8 µM [inhibitor, partial curve]. For `Cc1nn(C)c(Cl)c1C(=O)NCC(=O)NCc1ccccc1`, the Potency was “inactive”. With `CCn1c(N)c(C(=O)NCCCOC)sc1=S` the Potency was “inactive”. `N#CCCn1cc(/C=C/C(=O)O)c(-c2ccc(F)cc2)n1` was tested, and the Potency was “inactive”. For `Cc1ccc2c(CC(=O)Nc3cc(C(F)(F)F)ccc3Cl)coc2c1C`, the Potency was “inactive”. `COc1cc(NC(=O)CCCc2c[nH]c3ccccc23)cc(OC)c1` was tested, and the Potency was inconclusive: 15.8 µM [inhibitor, partial curve]. For `COc1ccc(/C=C2/C(=O)N=C3SCCN32)cc1`, the Potency was inconclusive: 17.8 µM [inhibitor, partial curve]. With `Cc1ccc(-c2noc(C3CCN(S(=O)(=O)c4ccc5c(c4)OCCO5)CC3)n2)o1` the Potency was inconclusive: 39.8 µM [inhibitor, single point]. `CN(C)c1ccc(NC(=O)c2ccc3nsnc3c2)cc1` was tested, and the Potency was active: 7.94 µM. With `CCOC(=O)c1[nH]c2ccc(OC)cc2c1NC(=O)c1ccc2c(c1)OCO2` the Potency was inconclusive: 10 µM [inhibitor, partial curve]. With `CCCCCCN(C(=O)CCCCCN1C(=O)NC(c2ccccc2-c2ccccc2)C(C(=O)OCc2ccccc2)=C1C)C(C(=O)NCCCC)c1ccc(OCC(=O)OC)c(C(=O)OC)c1` (stereo not drawn) the Potency was inconclusive: 10 µM [inhibitor, partial curve]. For `Cc1ccc(CS(=O)(=O)Cc2ccc(C(=O)NCCc3ccc(Cl)cc3)o2)cc1`, the Potency was “inactive”. `Cc1sc(NC(=O)c2ccco2)c(C(c2ccc(F)cc2)N2CCN(C)CC2)c1C` (stereo not drawn) was tested, and the Potency was inconclusive: 17.8 µM [inhibitor, single point]. In the case of `CC(=O)Nc1ccc(S(=O)(=O)/N=C2\C(=O)c3ccccc3C([O-])=C2n2cc[n+](-c3ccccn3)c2)cc1`, the Potency was active: 12.6 µM. For `COc1cc(OC)cc(C(=O)Nc2ccc3nc(N4CCC(C)CC4)cc(C)c3c2)c1`, the Potency was inconclusive: 2.51 µM [inhibitor, full curve]. `COc1cccc(C(=O)Nc2nnc(S(=O)(=O)N3CCOCC3)s2)c1` was tested, and the Potency was active: 3.16 µM. For `Cc1cc(/C=C(\C#N)C(=O)Nc2ccccc2F)c(C)[nH]1`, the Potency was inconclusive: 4.47 µM [inhibitor, full curve, poor fit]. For `COc1ccc(C(=O)c2oc3ccccc3c2NC(=O)COc2c(C)cc(C)cc2C)cc1`, the Potency was inconclusive: 0.0251 µM [inhibitor, full curve, poor fit]. For `COc1ccc(CCc2nnc(CCC(=O)NCc3ccc4ncccc4c3)o2)cc1`, the Potency was inconclusive: 35.5 µM [inhibitor, single point]. With `CCOc1ccc(C(=O)N2CCCC2)cc1` the Potency was “inactive”. `O=C(COC(=O)c1ccccc1NC(=O)C1CC1)c1ccc2c(c1)OCCO2` was tested, and the Potency was inconclusive: 17.8 µM [inhibitor, partial curve]. For `COCCNC(=O)CCCn1c(SCC(=O)Nc2cccc(C)c2)nc2c(sc3ccccc32)c1=O`, the Potency was inconclusive: 14.1 µM [activator, partial curve]. For `COc1ccc(N2CCN(c3nc4c(c(=O)n(C)c(=O)n4C)n3Cc3ccccc3)CC2)cc1`, the Potency was inconclusive: 20 µM [inhibitor, partial curve]. For `CC(=O)NN1C(=O)/C(=C\c2ccc(Br)o2)SC1=S`, the Potency was active: 25.1 µM. With `CC(C)c1nnc(NC(=O)CSc2nc3ccccc3s2)s1` the Potency was inconclusive: 1 µM [inhibitor, partial curve, poor fit]. For `Cn1cnc([N+](=O)[O-])c1S(=O)(=O)c1cccc(Cl)c1`, the Potency was inconclusive: 4.47 µM [inhibitor, full curve]. In the case of `CCn1c(SCC(=O)Nc2ccc3c(c2)OCCO3)nnc1-c1ccco1`, the Potency was “inactive”. In the case of `O=Cc1c(Sc2ccccn2)nc2ccccn2c1=O`, the Potency was inconclusive: 35.5 µM [inhibitor, partial curve, poor fit]. `COc1cc(NC(=O)c2cccs2)ccc1NC(=O)c1ccco1` was tested, and the Potency was inconclusive: 25.1 µM [inhibitor, partial curve, poor fit]. `O=C(CCN1CCc2ccccc2CC1)c1ccc2c(c1)OCCO2` was tested, and the Potency was inconclusive: 1.78 µM [inhibitor, partial curve, poor fit]. `Brc1csc(/C=N/Nc2nc3ccccc3s2)c1` was tested, and the Potency was inconclusive: 7.08 µM [inhibitor, partial curve]. In the case of `COC(=O)c1ccc(C(NC(=O)OCc2ccccc2)/C(=C/[C@@H](C)C(=O)NCC2CC2)c2cccnc2)cc1` (stereo partly drawn), the Potency was “inactive”. With `Cc1ccc(C)c(N2CCN(C(=O)c3ccc4c(Cl)c5c(nc4c3)CCCC5)CC2)c1` the Potency was inconclusive: 31.6 µM [inhibitor, single point]. With `C/C(CS(=O)(=O)c1ccc(Cl)cc1)=N/NC(N)=S` the Potency was “inactive”. In the case of `N#CC(C#N)=c1ccc2c(c1)NC1(CCCCC1)N=2`, the Potency was active: 14.1 µM. For `COc1cc(NC(=O)CCNS(=O)(=O)c2ccc3c(c2)CCN3C(=O)C2CC2)cc(OC)c1`, the Potency was “inactive”. `COc1cc(-c2noc(-c3ccc(NCCc4ccccc4)c([N+](=O)[O-])c3)n2)cc(OC)c1OC` was tested, and the Potency was “inactive”. With `CCOC(=O)C1=NN(c2ccc(Cl)cc2)C(=O)C1` the Potency was inconclusive: 39.8 µM [inhibitor, single point]. `NC1=NN(c2cccc(C(=O)O)c2)C(=O)C1` was tested, and the Potency was inconclusive: 15.8 µM [inhibitor, partial curve]. For `CC1(C)Cc2c(C#N)c(NCc3ccco3)nc(-c3ccco3)c2CO1`, the Potency was inconclusive: 39.8 µM [inhibitor, single point]. With `Cc1cc2ccccn2c1C(=O)c1ccc(NN)c([N+](=O)[O-])c1` the Potency was active: 10 µM.
